# Patent US20250326845A1 (LILING BIOPHARMACEUTICALS, published 2025)
# Numbering of substitutions follows the chain as printed.
# B1: huVHH3-1-Fc (Fc fusion)
# chain: EVQLVESGGGLVQPGGSLRLSCAASGRTSSMYAMGWFRQAPGKGREFVAGIGWENNTPYYARSVEGRFTISRDNVKNTVYLQMNSLRAEDTAVYYCAAQIGISGTLGDYWGQGTQVTVSS[letters of human IgG4 Fc with S228P (EU numbers) left out]
# B2: huVHH3-3-Fc (Fc fusion)
# chain: B1 chain with K43N, G44E, Y80F, S85R
# B3: huVHH3-5-Fc (Fc fusion)
# chain: B1 chain with V2L, P14A, K43N, G44E, Y80F, S85R, R87K, A88P
# B4: huVHH3-2-Fc (Fc fusion)
# chain: B1 chain with K43N, G44E
# B5: LL-VHH01-Fc (Fc fusion)
# chain: QLQLVESGGGLVQAGGSLRLSCAASGRTSSMYAMGWFRQSPGNEREFVAGIGWENNTPYYARSVEGRFTISRDNVKNTVFLQMNRLKPEDAAVYFCAAQIGISGTLGDYWGQGTQVTVSS[letters of human IgG4 Fc with S228P (EU numbers) left out]
# notes: Alpaca VHH fused to hIgG4 Fc, expressed in HEK293 and purified on Protein A; also called PD-1 single domain antibody VHH-Fc fusion protein; PD-1 VHH-Fc fusion protein
# B6: huVHH3-6-Fc (Fc fusion)
# chain: B5 chain with Q1E, S40A
# B7: huVHH3-4-Fc (Fc fusion)
# chain: B1 chain with K43N, G44E, Y80F, S85R, R87K, A88P
# Biological target: T1, human PD-1 protein (human, UniProt Q15116 in part)
# T1 construct: Bought soluble protein; also called PD-1 antigen; human PD-1 antigen
# Assay: binding ELISA activity, sample in human serum at 37 C, 2 weeks
row,ELISA binding(%),Binder
1,98.7,B1
2,92.2,B2
3,82.3,B3

# Biological target: T1, human PD-1 protein
# T1 sequence (Q15116 25-167 limits assumed): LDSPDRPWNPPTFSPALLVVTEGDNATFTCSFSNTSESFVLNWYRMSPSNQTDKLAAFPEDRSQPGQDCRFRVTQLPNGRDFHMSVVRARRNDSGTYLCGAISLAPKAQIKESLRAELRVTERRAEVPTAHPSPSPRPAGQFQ
# Assay: binding ELISA activity, sample in pH 5.5 buffer at 40 C, 0 week
row,ELISA binding(%),Binder
1,121,B2
2,93.9,B3

# Biological target: T1, human PD-1 protein
# Assay: binding ELISA activity, sample in human serum at 37 C, 0 week
row,ELISA binding(%),Binder
1,99,B2
2,82.4,B3

# Biological target: T1, human PD-1 protein
# Assay: ELISA, human PD-1 protein coated
row,EC50 [µg/mL],Binder
1,0.0405,B4
2,0.0293,B1
3,0.047,B2
4,0.0297,B5
5,0.046,B6

# Biological target: T1, human PD-1 protein
# Assay: binding ELISA activity, sample in pH 5.5 buffer at 40 C, 4 weeks
row,ELISA binding(%),Binder
1,97.1,B1
2,92.9,B2
3,86.5,B3

# Biological target: T1, human PD-1 protein
# Assay: binding ELISA activity, sample in human serum at 37 C, 4 weeks
row,ELISA binding(%),Binder
1,97.8,B1
2,102,B2
3,87.3,B3

# Biological target: T1, human PD-1 protein
# Assay: BLI (Octet RED 96e), antibody captured on Protein A probe, human PD-1 at 30 or 120 nM
Kd [nM],koff [s⁻¹],kon [M⁻¹ s⁻¹],Binder
4.13,0.000308,74500,B7
2.92,0.000231,79100,B4
2.86,0.00024,84000,B1
2.49,0.000222,89100,B2
2.66,0.000225,84600,B3
2.53,0.000201,79400,B5
2.83,0.000267,94200,B6

# Biological target: T1, human PD-1 protein
# Assay: binding ELISA activity, sample in pH 5.5 buffer at 40 C, 2 weeks
row,ELISA binding(%),Binder
1,106,B1
2,103,B2
3,104,B3
